This is an account of results in PubChem BioAssay AID1645887 (National Center for Advancing Translational Sciences (NCATS), 2021).

Several values for one entry are separate records, joined by “and”; a condition that tells them apart may be missing. Equal entries are not always repeated. Hit rate of the full screen: of about 16,000 compounds, about 40 (0.2%) were called active. About 1% were inconclusive and are not listed. Calls follow the shape of the dose curve; as a rule, active = well fitted activation curve with a large enough effect; inconclusive = small, poorly fitted or top-dose-only effect, or another doubt; inactive = no such curve, though single readings can be large or run the other way. Some of the results follow. Starred links: 1 amine or outer side, 2 acyl side, 3 side chain; linkers in the order of their positions; H or OH if unused. Non-standard residues stand in square brackets, D forms with d. Residues, ends and D or L forms follow the SMILES beside them. X10 = C[C@H](O)[C@@H](C(=O)[*:2])N(C(C)(C)C)[*:1]; X9 = CC(C)(C)N([C@@H](CS)C(=O)[*:2])[*:1]
% is scaled to controls: 0 for no effect and ±100 for the full control effect.

Chain of UniProt Q8WZA2 (Q8WZA2 whole entry, looked up): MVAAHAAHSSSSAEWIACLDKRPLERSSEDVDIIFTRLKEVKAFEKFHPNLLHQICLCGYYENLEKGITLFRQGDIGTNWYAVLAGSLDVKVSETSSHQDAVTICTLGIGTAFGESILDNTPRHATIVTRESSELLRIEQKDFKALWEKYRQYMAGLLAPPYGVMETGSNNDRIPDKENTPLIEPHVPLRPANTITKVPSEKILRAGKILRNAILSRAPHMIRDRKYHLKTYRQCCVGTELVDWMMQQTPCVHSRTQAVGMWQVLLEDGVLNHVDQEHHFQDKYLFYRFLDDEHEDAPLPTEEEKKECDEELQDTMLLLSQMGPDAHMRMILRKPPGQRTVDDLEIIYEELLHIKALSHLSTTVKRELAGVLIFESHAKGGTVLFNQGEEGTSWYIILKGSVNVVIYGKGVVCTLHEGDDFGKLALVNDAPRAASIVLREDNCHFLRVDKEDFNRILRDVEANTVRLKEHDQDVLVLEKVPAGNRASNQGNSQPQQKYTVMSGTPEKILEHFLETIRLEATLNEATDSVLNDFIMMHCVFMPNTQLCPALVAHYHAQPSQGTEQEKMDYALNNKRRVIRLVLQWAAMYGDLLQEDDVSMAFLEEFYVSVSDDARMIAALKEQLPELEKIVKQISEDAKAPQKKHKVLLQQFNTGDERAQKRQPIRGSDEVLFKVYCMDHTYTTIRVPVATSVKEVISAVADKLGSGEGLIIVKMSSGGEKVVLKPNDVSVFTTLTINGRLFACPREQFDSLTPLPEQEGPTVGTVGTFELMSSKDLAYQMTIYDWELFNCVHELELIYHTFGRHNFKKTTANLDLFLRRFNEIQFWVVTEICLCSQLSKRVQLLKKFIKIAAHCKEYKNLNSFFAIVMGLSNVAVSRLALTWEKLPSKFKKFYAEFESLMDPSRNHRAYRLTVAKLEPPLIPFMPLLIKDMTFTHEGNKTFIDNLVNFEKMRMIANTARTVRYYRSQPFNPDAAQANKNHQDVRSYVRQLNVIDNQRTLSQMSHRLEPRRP

In the assay the target is Rap guanine nucleotide exchange factor 4 (Homo sapiens) (UniProt Q8WZA2). Kind of assay: Validation qHTS for agonist of cAMP-regulated guanine nucleotide exchange factor 4 (EPAC2).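 Also: exchange makes BODIPY-GDP fluorescence drop when released from Rap1B; series mostly up to about 150 µM.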 The following applies: EPAC2 Rap1B BODIPY-GDP exchange, fluorescence; activation: active compounds read high. An excerpt:
Principle Investigator: Xiaodong Cheng Ph.D.
The University of Texas Medical Branch, […], TX
In multi-cellular eukaryotic organisms, the effects of cAMP are transduced by two ubiquitously-expressed intracellular cAMP receptors, the classic protein kinase A/cAMP-dependent protein kinase (PKA/cAPK) and the more recently discovered exchange protein directly activated by cAMP/cAMP-regulated guanine nucleotide exchange factor (EPAC/cAMP-GEF). Both PKA and EPAC are ubiquitously expressed in all tissues, and an increase in intracellular cAMP levels will lead to the activation of both PKA and EPAC. Therefore, careful dissections of the individual role and relative contribution of EPAC and PKA within the overall cAMP signaling in various model systems are critical for further elucidating the mechanism of cAMP signaling. To date no EPAC-specific antagonists and agonist, as well as isoform-specific agonists have been reported, and developing EPAC-specific pharmacological probes to determine the physiological functions that EPAC play in the overall cAMP-mediated signaling remains a major challenge within the research field. Furthermore, identified regulators of EPAC may lead to new mechanism-based therapeutic strategies specifically targeting the EPAC / cAMP-signaling components as EPAC has been implicated to play important roles in major human pathological conditions such as diabetes, heart disease, and cancer.
This qHTS will be used to screen the Molecular Libraries Small Molecule Repository (MLSMR) as a concentration-titration series using the NCGC unique quantitative screening (qHTS) platform to find activators for EPAC1. In addition, this assay will also be used as a counterscreen for the EPAC2 qHTS. This fluorescent based assay is developed and validated for EPAC1 that measures exchange using EPAC effector Rap1 complex with BODIPY-GDP, a GDP analog with a tethered fluorophores. Activators are identified by monitoring the change in fluorescence signal as the exchanged free BODIPY-GDP has a reduced fluorescence compared to Rap1-bound BODIPY-GDP. Increase in signal (activation) is the desired outcome for the EPAC1 agonist while no activity in this assay is desired for the EPAC2 agonist counterscreen.
[1] de Rooij, J., Zwartkruis, F. J., Verheijen, M. H., Cool, R. H., Nijman, S. M., Wittinghofer, A., and Bos, J.L. (1998) Nature 396, 474-477.
Briefly, three uL of reagents (100 nM EPAC2, 250 nM RAP1B-BODIPY-GDP, 50 uM GDP) were dispensed into a 1536-well Greiner black solid-bottom medium binding assay plate. Controls and test compounds (23 nL) were transferred to the plate via a Kalypsys pin tool equipped with a 1536-pin array. The plates were centrifuged at 1,000 rpm for 15 seconds followed by 5 minute incubation at room temperature. The assay plates were read at 5 minute intervals for 30 minutes in the ViewLux plate reader using 480nm excitation and 540nm emission filters. The results were normalized to the agonist positive control of 6.5 mM cAMP.
With `O=[N+]([O-])c1c(Cl)c(Cl)cc(Cl)c1Cl`, the activation was inactive: -9.47%.
For `CCCCCCCCCCCCCCCC(=O)OC[C@H](COP(=O)([O-])OCC[N+](C)(C)C)OC(C)=O` the value was inactive: -16.1%; for `Cc1ccc(N=CN(C)C=Nc2ccc(C)cc2C)c(C)c1`, inactive: -24%; for `CC(C)C[C@H](NC(=O)[C@H](Cc1ccccc1)NC(=O)CNC(=O)[C@H](CS)N(C(=O)[C@@H](N)Cc1ccc(O)cc1)C(C)(C)C)C(=O)N([C@H](C(=O)O)[C@H](C)O)C(C)(C)C` (H-Y[X9]GFL[X10]-OH), inactive: 0.782%.
For `C=CCN1CC[C@]23c4c5ccc(O)c4O[C@H]2/C(=N/NC(=O)c2ccccc2)CC[C@@]3(O)[C@H]1C5`, the activation was inactive: -2.11%.
In the case of `CC(C)CC(N(C)C)C1(c2ccc(Cl)cc2)CCC1` (stereo not drawn), the activation is inactive: 6.35%.
In the case of `CNC1(c2ccccc2Cl)CCCCC1=O` (stereo not drawn), the activation was inactive: -2.74%.
As to `N#CN`, the activation is inactive: -18.8%.
With `CNC(C)C(O)c1ccc(O)cc1` (stereo not drawn), the activation is inactive: 8.62% and inactive: -1.8%.
Regarding `CNC(=O)O/N=C(/C)SC`, the activation is inactive: -11.5%.
Turning to `COc1ccc(CC2c3cc(OC)c(OC)cc3CCN2C)cc1OC` (stereo not drawn), the activation is inactive: -3.53%.
Turning to `COc1cc2c(cc1OC)[C@@H]1C(=O)c3ccc4c(c3OC1CO2)CC(C(C)C)O4` (stereo partly drawn), the activation was inactive: 13.7%.
As for `N#C/C(=C\c1cccc(O)c1)C(=O)O`, the activation was inactive: -5.5%.
For `COP(=S)(OC)Oc1ccc(SC)c(C)c1`, the activation was inactive: 1.35% and inactive: -16.1%.
Turning to `CN(CCc1ccc(Cl)c(Cl)c1)[C@H]1CCCC[C@H]1N1CCCC1`, the activation is inactive: -15%.
In the case of `O=c1[nH]c2ccccc2n1CCCN1CCC(n2c(=O)[nH]c3cc(Cl)ccc32)CC1`, the activation is inactive: 2.32% [middle of 4 runs].
Take `C[N+](C)(C)CC(=O)O`: the activation was inactive: -15.5%.
Turning to `c1ccc(C2(N3CCCC3)CCCCC2)cc1`, the activation was inactive: -6.34%.
On to `O=C(O)COc1nc(Cl)c(Cl)cc1Cl`, for which the activation is inactive: -4.93%.
As for `CC1CCCC(=O)CCC/C=C/c2cc(O)cc(O)c2C(=O)O1` (stereo not drawn), the activation was inactive: 6.7%.
For `COC1C(O)C(OC2CC[C@]3(C=O)C4C(OC(C)=O)C[C@@]5(C)C(C6=CC(=O)OC6)CC[C@]5(O)C4CC[C@]3(O)C2)OC(C)C1OC(C)=O` (stereo partly drawn), the activation is inactive: -6.4%.
As to `CN1C[C@H](CNC(=O)OCc2ccccc2)C[C@H]2c3cccc4c3c(cn4C)C[C@@H]21`, the activation was inactive: -9.94%.
Turning to `C#C[C@]1(O)CC[C@H]2[C@@H]3CCC4=CC(=O)CC[C@]4(C)[C@H]3CC[C@@]21C`, the activation was inactive: 9.66% and inactive: -5.05%.
Consider `COP(=S)(OC)SCn1nnc2ccccc2c1=O`, for which the activation is inactive: -21.5%.
On to `C[C@H]1CC[C@@H]2[C@@H](C)[C@H]3[C@H](C[C@H]4[C@@H]5CC=C6CC(O[C@@H]7O[C@H](CO)[C@H](O)[C@H](O[C@@H]8O[C@H](CO)[C@@H](O)[C@H](O)[C@H]8O)[C@H]7O[C@H]7O[C@@H](C)[C@H](O)[C@@H](O)[C@H]7O)CC[C@]6(C)[C@H]5CC[C@]34C)N2C1` (stereo partly drawn), for which the activation is inactive: -37.6%.
Consider `CC(C)[N+](C)(CCC(C(N)=O)(c1ccccc1)c1ccccc1)C(C)C`, for which the activation is inactive: -8.33% and inactive: -1.53%.
Turning to `CCCCC[C@@H](O)C1C(=O)OC(C)[C@H](O)/C=C/C=C/C=C/C=C/C=C(\C)C(O)C(O)C(O)C[C@H](O)C[C@H](O)C[C@H](O)C[C@H](O)C[C@@H]1O` (stereo partly drawn), the activation is inactive: -13.9% and inactive: -27.1%.
For `COc1ccc2c(c1)C13CCCCC1C(C2)N(C)CC3` (stereo not drawn), the activation is inactive: 7.24%.
For `CCC(Oc1ccc(Cl)cc1)C(=O)OC1CC2CCC(C1)N2C` (stereo not drawn), the activation is inactive: -4.67%.
Consider `CC(=O)OC1CC(OC(C)=O)[C@]2(C)C(CC(OC(C)=O)[C@]3(C)C2CC[C@@]2(C)C(c4ccoc4)C(=O)C4O[C@]432)C1(C)C` (stereo partly drawn), for which the activation is inactive: -19.5%.
`CC[C@H]1C[C@H]2[C@@H]3CCC4=CC(=O)CC[C@@H]4[C@H]3CC[C@]2(C)[C@H]1O`: the activation is inactive: -5.89%.
For `O=C1CC[C@]2(O)C3Cc4ccc(O)c5c4C2(CCN3CC2CC2)C1O5` (stereo partly drawn) the value was inactive: -3.02%; for `Oc1cc[c]([Hg][Cl])cc1`, inactive: -12.7% and inactive: -6.42%.
In the case of `COC(=O)COc1ccc(Cl)cc1Cl`, the activation is inactive: -2.38%.
For the molecule `c1ccc2c(c1)Sc1ccccc1N2CC1CN2CCC1CC2` (stereo not drawn), the activation is inactive: -18.9%.
For `S=C(NC1CCCCC1)N1CCC(c2cnc[nH]2)CC1` the value was inactive: 0.593% and inactive: -6.64%.
Take `C[N+]1(CCC(C(N)=O)(c2ccccc2)c2ccccc2)CCCCC1`: the activation is inactive: 1.75%.
For `CC(C)CN1CCC2(CC1)CCN(C(=O)Oc1ccccc1)CC2` the value was inactive: -17.8%; for `O=P1(N(CCCl)CCCl)NC(OO)CCO1` (stereo not drawn), inactive: 7.74%.
Take `COC(=O)/C=C\C(=O)N[C@@H]1CC[C@@]2(O)[C@H]3Cc4ccc(O)c5c4[C@@]2(CCN3CC2CC2)[C@@H]1O5`: the activation is inactive: -3.77%.
`CC[C@H]1[C@@H]2C[C@H]3[C@@H]4N(C)c5ccccc5[C@]45C[C@@H](C2[C@H]5O)N3[C@@H]1O` (stereo partly drawn): the activation was inactive: -1.68%.
Regarding `CN1CCC2(CC1)CCN(C(=O)c1ccco1)CC2`, the activation is inactive: 1.62%.
As to `CCCCCCCCCCCCCC(=O)OC1C(C)[C@@]2(O)C(C=C(CO)C[C@]3(O)C(=O)C(C)=C[C@H]23)[C@@H]2C(C)(C)[C@]12OC(C)=O` (stereo partly drawn), the activation is inactive: -58.1%.
As for `O=C1C(I)=CC(=C(c2cc(I)c(O)c(I)c2)c2ccccc2C(=O)O)C=C1I`, the activation is inactive: -5.39% and inactive: -0.454%.
Next, `CC(C)(C)NC[C@H](O)c1ccc(O)cc1Cl`: inactive: -2.21%; `COC(C)(C)CCCC(C)C/C=C/C(C)=C/C(=O)OC(C)C` (stereo not drawn): inactive: -45.8% and inactive: -17%; `N#Cc1ccc(CN2CCC3(CC2)CCN(C(=O)Oc2ccccc2)CC3)cc1`: inactive: -11.5%.
Turning to `CC(C)[C@H]1C(=O)N2CCC[C@H]2[C@]2(O)O[C@](NC(=O)[C@@H]3C[C@@H]4c5cccc6[nH]cc(c56)C[C@H]4N(C)C3)(C(C)C)C(=O)N12`, the activation was inactive: -14%.
